# In the supplement of paper PMC8728848:
# The other results are listed elsewhere or left out.
# B1: Jacalin (Artocarpus integrifolia) (protein)
# chain: MAYSSLLSLSVLALLFSISSADTRKWFLANGINQNPIGIIEAAVGVSEDLLNLNGMEAKNDEQSGISQTVIVGPWGAKVSTSSNGKAFDDGAFTGIREINLSYNKETAIGDFQVVYDLNGSPYVGQNHKSFITGFTPVKISLDFPSEYIMEVSGYTGNVSGYVVVRSLTFKTNKKTYGPYGVTSGTPFNLPIENGLIVGFKGSIGYWLDYFSMYLSL
# How the values were obtained:
# Assay in all cases: glycan array binding signal (z-score within array); higher = stronger binding
# Conditions in all cases: glycan notation: IUPAC condensed, linker removed
# [1] = target: Gal(a1-4)Gal(b1-4)GlcNAc(b1-2)Man(a1-3)[Gal(a1-4)Gal(b1-4)GlcNAc(b1-2)Man(a1-6)]Man(b1-4)GlcNAc(b1-4)GlcNAc
# How it was run: (§1)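 Glycan array data were curated from 3228 arrays in the Consortium for Functional Glycomics database and kept only where the protein sequence was available. Glycan names were converted to IUPAC-condensed notation, and columns mapping to the same glycan were averaged. The binding signal is a within-array Z-score, averaged across arrays of the same protein sequence at different concentrations or buffers and across linkers. Negative Z-scores can be read as non-binding.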
# [2] = target: Gal(a1-4)Gal(b1-4)GlcNAc(b1-3)Gal(b1-4)Glc
# How it was run: as §1
# [3] = target: Gal(a1-4)GlcNAc
# How it was run: as §1
# [4] = target: Gal(a1-6)Glc
# How it was run: as §1
# [5] = target: Gal(b1-2)Gal
# How it was run: as §1
# [6] = target: Gal(b1-3)Gal
# How it was run: as §1
# [7] = target: Gal(b1-3)Gal(b1-4)GlcNAc
# How it was run: as §1
# [8] = target: Gal(b1-3)GalNAc
# How it was run: as §1
# [9] = target: Gal(b1-3)GalNAc(a1-3)[Fuc(a1-2)]Gal(b1-4)Glc
# How it was run: as §1
# [10] = target: Gal(b1-3)GalNAc(a1-3)[Fuc(a1-2)]Gal(b1-4)GlcNAc
# How it was run: as §1
# [11] = target: Gal(b1-3)GalNAc(b1-3)Gal
# How it was run: as §1
# [12] = target: Gal(b1-3)GalNAc(b1-3)Gal(a1-4)Gal(b1-4)Glc
# How it was run: as §1
# [13] = target: Gal(b1-3)GalNAc(b1-4)Gal(b1-4)Glc
# How it was run: as §1
# [14] = target: Gal(b1-3)GalNAc(b1-4)[Neu5Ac(a2-3)]Gal(b1-4)Glc
# How it was run: as §1
# [15] = target: Gal(b1-3)GlcNAc
# How it was run: as §1
# [16] = target: Gal(b1-3)GlcNAc(a1-3)Gal(b1-4)GlcNAc
# How it was run: as §1
# [17] = target: Gal(b1-3)GlcNAc(a1-6)Gal(b1-4)GlcNAc
# How it was run: as §1
# [18] = target: Gal(b1-3)GlcNAc(b1-2)Man
# How it was run: as §1
# [19] = target: Gal(b1-3)GlcNAc(b1-2)Man(a1-3)[Gal(b1-3)GlcNAc(b1-2)Man(a1-6)]Man(b1-4)GlcNAc(b1-4)GlcNAc
# How it was run: as §1
# [20] = target: Gal(b1-3)GlcNAc(b1-2)Man(a1-3)[Gal(b1-3)GlcNAc(b1-2)Man(a1-6)]Man(b1-4)GlcNAc(b1-4)[Fuc(a1-6)]GlcNAc
# How it was run: as §1
# [21] = target: Gal(b1-3)GlcNAc(b1-2)Man(a1-3)[GlcNAc(b1-4)][Gal(b1-3)GlcNAc(b1-2)Man(a1-6)]Man(b1-4)GlcNAc(b1-4)GlcNAc
# How it was run: as §1
# [22] = target: Gal(b1-3)GlcNAc(b1-2)[Gal(b1-3)GlcNAc(b1-6)]Man(a1-6)[Gal(b1-3)GlcNAc(b1-2)Man(a1-3)]Man(b1-4)GlcNAc(b1-4)GlcNAc
# How it was run: as §1
# [23] = target: Gal(b1-3)GlcNAc(b1-3)Gal(b1-3)GlcNAc
# How it was run: as §1
# [24] = target: Gal(b1-3)GlcNAc(b1-3)Gal(b1-4)Glc
# How it was run: as §1
# [25] = target: Gal(b1-3)GlcNAc(b1-3)Gal(b1-4)GlcNAc
# How it was run: as §1
# [26] = target: Gal(b1-3)GlcNAc(b1-3)Gal(b1-4)GlcNAc(b1-2)Man(a1-3)[Gal(b1-3)GlcNAc(b1-3)Gal(b1-4)GlcNAc(b1-2)Man(a1-6)]Man(b1-4)GlcNAc(b1-4)GlcNAc
# How it was run: as §1
# [27] = target: Gal(b1-3)GlcNAc(b1-3)Gal(b1-4)GlcNAc(b1-2)[Gal(b1-3)GlcNAc(b1-3)Gal(b1-4)GlcNAc(b1-6)]Man(a1-6)[Gal(b1-3)GlcNAc(b1-3)Gal(b1-4)GlcNAc(b1-2)Man(a1-3)]Man(b1-4)GlcNAc(b1-4)[Fuc(a1-6)]GlcNAc
# How it was run: as §1
# [28] = target: Gal(b1-3)GlcNAc(b1-3)Gal(b1-4)GlcNAc(b1-3)Gal(b1-4)GlcNAc(b1-2)[Gal(b1-3)GlcNAc(b1-3)Gal(b1-4)GlcNAc(b1-3)Gal(b1-4)GlcNAc(b1-6)]Man(a1-6)[Gal(b1-3)GlcNAc(b1-3)Gal(b1-4)GlcNAc(b1-3)Gal(b1-4)GlcNAc(b1-2)Man(a1-3)]Man(b1-4)GlcNAc(b1-4)[Fuc(a1-6)]GlcNAc
# How it was run: as §1
# [29] = target: Gal(b1-3)GlcNAc(b1-3)Gal(b1-4)GlcNAc(b1-6)[Gal(b1-3)GlcNAc(b1-3)]Gal(b1-4)Glc
# How it was run: as §1
# [30] = target: Gal(b1-3)GlcNAc(b1-3)Gal(b1-4)[Fuc(a1-3)]GlcNAc
# How it was run: as §1
# [31] = target: Gal(b1-3)GlcNAc(b1-3)Gal(b1-4)[Fuc(a1-3)]GlcNAc(b1-6)[Gal(b1-3)GlcNAc(b1-3)]Gal(b1-4)Glc
# How it was run: as §1
# [32] = target: Gal(b1-3)GlcNAc(b1-3)GalNAc
# How it was run: as §1
# [33] = target: Gal(b1-3)GlcNAc(b1-6)Gal(b1-4)GlcNAc
# How it was run: as §1
# [34] = target: Gal(b1-3)GlcNAc(b1-6)GalNAc
# How it was run: as §1
# [35] = target: Gal(b1-3)GlcNAc(b1-6)[Gal(b1-3)]GalNAc
# How it was run: as §1
# [36] = target: Gal(b1-3)GlcNAc6S
# How it was run: as §1
# [37] = target: Gal(b1-3)[Fuc(a1-4)]GlcNAc
# How it was run: as §1
# [38] = target: Gal(b1-3)[Fuc(a1-4)]GlcNAc(b1-2)Man
# How it was run: as §1
# [39] = target: Gal(b1-3)[Fuc(a1-4)]GlcNAc(b1-2)Man(a1-3)[Gal(b1-3)[Fuc(a1-4)]GlcNAc(b1-2)Man(a1-6)]Man(b1-4)GlcNAc(b1-4)[Fuc(a1-6)]GlcNAc
# How it was run: as §1
# [40] = target: Gal(b1-3)[Fuc(a1-4)]GlcNAc(b1-3)Gal(b1-3)[Fuc(a1-4)]GlcNAc
# How it was run: as §1
# [41] = target: Gal(b1-3)[Fuc(a1-4)]GlcNAc(b1-3)Gal(b1-4)GlcNAc
# How it was run: as §1
# [42] = target: Gal(b1-3)[Fuc(a1-4)]GlcNAc(b1-3)Gal(b1-4)[Fuc(a1-3)]GlcNAc
# How it was run: as §1
# [43] = target: Gal(b1-3)[Fuc(a1-4)]GlcNAc(b1-6)GalNAc
# How it was run: as §1
# [44] = target: Gal(b1-3)[GlcNAc(b1-6)]GalNAc
# How it was run: as §1
# [45] = target: Gal(b1-3)[Neu5Ac(a2-6)]GalNAc
# How it was run: as §1
binder,measurement,setting,value
B1,glycan array binding signal (z-score),[1],-0.231
same,glycan array binding signal (z-score),[2],-0.262
same,glycan array binding signal (z-score),[3],0.782
same,glycan array binding signal (z-score),[4],0.126
same,glycan array binding signal (z-score),[5],-0.257
same,glycan array binding signal (z-score),[6],-0.001
same,glycan array binding signal (z-score),[7],-0.275
same,glycan array binding signal (z-score),[8],0.936
same,glycan array binding signal (z-score),[9],-0.282
same,glycan array binding signal (z-score),[10],-0.259
same,glycan array binding signal (z-score),[11],-0.254
same,glycan array binding signal (z-score),[12],0.172
same,glycan array binding signal (z-score),[13],-0.255
same,glycan array binding signal (z-score),[14],-0.277
same,glycan array binding signal (z-score),[15],-0.269
same,glycan array binding signal (z-score),[16],-0.291
same,glycan array binding signal (z-score),[17],-0.256
same,glycan array binding signal (z-score),[18],-0.247
same,glycan array binding signal (z-score),[19],-0.219
same,glycan array binding signal (z-score),[20],0.255
same,glycan array binding signal (z-score),[21],-0.24
same,glycan array binding signal (z-score),[22],-0.245
same,glycan array binding signal (z-score),[23],-0.241
same,glycan array binding signal (z-score),[24],-0.279
same,glycan array binding signal (z-score),[25],-0.276
same,glycan array binding signal (z-score),[26],-0.241
same,glycan array binding signal (z-score),[27],-0.084
same,glycan array binding signal (z-score),[28],0.113
same,glycan array binding signal (z-score),[29],-0.275
same,glycan array binding signal (z-score),[30],-0.27
same,glycan array binding signal (z-score),[31],-0.258
same,glycan array binding signal (z-score),[32],1.05
same,glycan array binding signal (z-score),[33],-0.276
same,glycan array binding signal (z-score),[34],-0.279
same,glycan array binding signal (z-score),[35],-0.251
same,glycan array binding signal (z-score),[36],-0.272
same,glycan array binding signal (z-score),[37],-0.272
same,glycan array binding signal (z-score),[38],-0.241
same,glycan array binding signal (z-score),[39],0.006
same,glycan array binding signal (z-score),[40],-0.256
same,glycan array binding signal (z-score),[41],-0.357
same,glycan array binding signal (z-score),[42],-0.267
same,glycan array binding signal (z-score),[43],-0.255
same,glycan array binding signal (z-score),[44],-0.203
same,glycan array binding signal (z-score),[45],-0.268
